Experimental data from US20260098080A1, “A MODIFIED PROTEIN SCAFFOLD AND USE THEREOF” (EVOLVERITAS BIOTECHNOLÓGIAI KORLÁTOLT FELELOSSÉGU TÁRSASÁG, priority 2022, published 2026).
Part of at least one peptide drawing is inferred or uncertain, most often the ends. Bridges are numbered along the chain shown (N, C = ends). Where no end group is shown, it is not given here.

What was measured:
human lectin pathway = assay: Human lectin pathway inhibition, C4 deposition ELISA on mannan in normal human serum; type: biochemical; conditions: for Relative potency: Human, relative to EVO2; for Relative potency (relative human lectin pathway inhibitory efficiency compared to EVO2): fold vs EVO2 = 1, human serum
rat lectin pathway = assay: Rat lectin pathway inhibition, C4 deposition ELISA on mannan in pooled rat serum; type: biochemical; conditions: for Relative potency: Rat, relative to EVO2
[1] = target: T1, human MASP-2 catalytic fragment (Homo sapiens, UniProt O00187); assay: Surface plasmon resonance kinetics and affinity on immobilized human MASP-2 catalytic fragment; type: binding; conditions: relative to EVO2
T1 construct: catalytic enzyme fragments containing the three C-terminal domains: CCP1-CCP2-SP; made in house

[2] = target: T2, rat MASP-2 catalytic fragment (Rattus norvegicus, UniProt Q9JJS8); assay: Surface plasmon resonance kinetics and affinity on immobilized rat MASP-2 catalytic fragment; type: binding; conditions: relative to EVO2
T2 construct: starts with Gln298 and ends with Phe685 according to UniProt numbering (entry Q9JJS8); made in house
T2 sequence (Q9JJS8 298-685): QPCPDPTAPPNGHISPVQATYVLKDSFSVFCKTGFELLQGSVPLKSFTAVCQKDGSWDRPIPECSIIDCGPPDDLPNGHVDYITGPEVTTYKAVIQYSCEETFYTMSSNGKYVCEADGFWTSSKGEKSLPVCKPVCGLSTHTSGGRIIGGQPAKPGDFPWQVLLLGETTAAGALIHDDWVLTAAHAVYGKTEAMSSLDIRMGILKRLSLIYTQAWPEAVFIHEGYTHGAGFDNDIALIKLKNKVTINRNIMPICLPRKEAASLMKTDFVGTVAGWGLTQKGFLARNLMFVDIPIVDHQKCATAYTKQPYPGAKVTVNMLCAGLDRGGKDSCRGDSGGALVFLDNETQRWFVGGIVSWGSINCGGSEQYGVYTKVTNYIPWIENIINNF

T1 sequence (O00187 445-686 limits assumed): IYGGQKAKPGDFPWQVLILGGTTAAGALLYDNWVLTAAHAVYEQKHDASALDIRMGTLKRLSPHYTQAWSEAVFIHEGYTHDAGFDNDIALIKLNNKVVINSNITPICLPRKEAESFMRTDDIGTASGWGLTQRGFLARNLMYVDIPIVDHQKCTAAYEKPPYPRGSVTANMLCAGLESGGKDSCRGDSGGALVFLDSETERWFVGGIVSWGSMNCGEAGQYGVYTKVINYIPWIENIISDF
T1 sequence (O00187 298-444 partner limits assumed): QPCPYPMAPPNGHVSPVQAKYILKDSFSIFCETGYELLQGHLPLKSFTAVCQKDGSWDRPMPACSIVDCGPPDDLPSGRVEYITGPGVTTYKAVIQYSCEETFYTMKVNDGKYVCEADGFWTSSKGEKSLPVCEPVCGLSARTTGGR

Sequence	Relative potency (human lectin pathway)	Relative potency (relative human lectin pathway inhibitory efficiency compared to EVO2) (human lectin pathway)	Relative potency (rat lectin pathway)	Relative affinity [1]	Relative affinity [2]	IC50 (human lectin pathway; Human lectin pathway, C4 deposition, normalised IC50)	IC50 (rat lectin pathway; Rat lectin pathway, C4 deposition, normalised IC50)
KPDFCFLEEDPGPCRALKRRYFYNNQTKQCERFGYGGCFGNMNNFVTLEECKNICEDG (disulfide 5-55, 14-38, 30-51) [EVO21c]	22.4	22.3	8.5				
KPDFCFLEEDPGPCRALKRRYFYNNQTKQCERFKYGGCLGNMNNFETLEECKNICEDG (disulfide 5-55, 14-38, 30-51) [EVO2d]	2.3	2.3	1.5	1.5	3.4		
KPDFCFLEEDPGPCRALKRRYFYNNQTKQCERFSYGGCFGNMNNFVTLEECKNICEDG (disulfide 5-55, 14-38, 30-51) [EVO21d]	16.6	16.6	4.1			8.3 nM	25.9 nM
KPDFCFLEEDPGPCRAVKRRYFYNNQTKQCERFGYGGCLGNMNNFETLEECKNICEDG (disulfide 5-55, 14-38, 30-51) [EVO2b]	2.2	2.2	3.1	0.9	1.9		
KPDFCFLEEDPGPCRAVKRRYFYNNQTKQCERFKYGGCLGNMNNFETLEECKNICEDG (disulfide 5-55, 14-38, 30-51) [EVO2, reference compound]	1.0	1	1.0	1.0	1.0		
KPDFCFLEEDPGPCRAVKRRYFYNNQTKQCERFYYGGCLGNMNNFETLEECKNICEDG (disulfide 5-55, 14-38, 30-51) [EVO2c]	6.2	6.2	3.1	1.7	2.8		
KPDFCFLENDPGLCRAAAVRYFYNNQTKQCERFYYGGCLGNMNNFVTLEECKNICEDG (disulfide 5-55, 14-38, 30-51) [EVO222]	14.1	14.1	8.9	40.0	6.4		
KPDFCFLENDPGLCRALKRRYFYNNQTKQCERFGYGGCLGNMNNFVTLEECKNICEDG (disulfide 5-55, 14-38, 30-51) [EVO212]	22.1	22.1	2.3	32.7	2.9		
KPDFCFLENDPGPCRALARRYFYNNQTKQCERFYYGGCLGNMNNFVTLEECKNICEDG (disulfide 5-55, 14-38, 30-51) [EVO22b]	10.0	10	11.0	8.5	22.3		
KPDFCFLENDPGPCRALKLRYFYNNQTKQCERFGYGGCLGNMNNFVTLEECKNICEDG (disulfide 5-55, 14-38, 30-51) [EVO214]	32.4	32.4	9.5	47.6	31.0		
KPDFCFLENDPGPCRALKRRYFYNNQTKQCERFGYGGCLGNMNNFVTLEECKNICEDG (disulfide 5-55, 14-38, 30-51) [EVO21]				48.0	44.1		
KPDFCFLENDPGPCRALKRRYFYNNQTKQCERFYYGGCFGNMNNFETLEECKNICEDG (disulfide 5-55, 14-38, 30-51) [EVO25]	24.5	24.5	7.1	8.8	4.6		
KPDFCFLENDPGPCRALKRRYFYNNQTKQCERFYYGGCFGNMNNFVTLEECKNICEDG (disulfide 5-55, 14-38, 30-51) [EVO23]	47.1	47.1	13.1	19.1	5.4		
KPDFCFLENDPGPCRALKRRYFYNNQTKQCERFYYGGCLGNMNNFETLEECKNICEDG (disulfide 5-55, 14-38, 30-51) [EVO24]	18.1	18.1	16.2	6.5	12.6		
KPDFCFLENDPGPCRALKRRYFYNNQTKQCERFYYGGCLGNMNNFVTLEECKNICEDG (disulfide 5-55, 14-38, 30-51) [EVO22]				13.1	15.9		
KPDFCFLENDPGPCRAVKRRYFYNNQTKQCERFGYGGCLGNMNNFVTLEECKNICEDG (disulfide 5-55, 14-38, 30-51) [EVO21a]	6.5	6.4	2.7	2.5	1.8		
KPDFCFLENDPGPCRAVKRRYFYNNQTKQCERFKYGGCLGNMNNFETLEECKNICEDG (disulfide 5-55, 14-38, 30-51) [EVO2a]	0.6	0.6	0.5	0.6	0.8		
KPDFCFLENDPGVCRAAAVRYFYNNQTKQCERFYYGGCLGNMNNFVTLEECKNICEDG (disulfide 5-55, 14-38, 30-51) [EVO221]	10.9	10.8	9.7	14.1	21.4		
KPDFCFLENDPGVCRALAVRYFYNNQTKQCERFYYGGCLGNMNNFVTLEECKNICEDG (disulfide 5-55, 14-38, 30-51) [EVO224]	4.5	4.5	3.6	3.2	16.6		
KPDFCFLENDPGWCRAAKLRYFYNNQTKQCERFGYGGCLGNMNNFVTLEECKNICEDG (disulfide 5-55, 14-38, 30-51) [EVO216]	4.5	4.5		2.4			
KPDFCFLENDPGWCRAAKRRYFYNNQTKQCERFGYGGCLGNMNNFVTLEECKNICEDG (disulfide 5-55, 14-38, 30-51) [EVO215]	6.1	6.1		5.9			
KPDFCFLENDPGWCRALKRRYFYNNQTKQCERFGYGGCLGNMNNFVTLEECKNICEDG (disulfide 5-55, 14-38, 30-51) [EVO211]	44.0	44	2.0	41.6	1.3		
